Laboratory results reported in PubChem BioAssay AID759 (NMMLSC, 2007).
Screen size: about 190,000 compounds; about 270 (0.14%) were called active. Inconclusive means that the source gave no clear call. Such entries were picked first, then a sample of the others.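 The calls were made as follows: active = GTP binding activity at least 20% away from the 100% baseline, either lowered as inhibitor or raised as activator; inconclusive = flagged as likely green fluorescent, judged across all proteins in the well; inactive = the rest.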

target: GTPase HRas (Homo sapiens) (UniProt P01112); assay: HRas wt fluorescent GTP binding changes, either direction – biochemical, wildtype, bead-based flow cytometry, multiplex, primary screen (AID 759); settings: GST-Ras wt beads, Bodipy-FL-GTP binding, at 10 µM, actives lie on both sides;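 also: 0% = unlabeled GTP competition control and 100% = no-compound control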
Sequence of UniProt P01112 (P01112 whole entry, looked up): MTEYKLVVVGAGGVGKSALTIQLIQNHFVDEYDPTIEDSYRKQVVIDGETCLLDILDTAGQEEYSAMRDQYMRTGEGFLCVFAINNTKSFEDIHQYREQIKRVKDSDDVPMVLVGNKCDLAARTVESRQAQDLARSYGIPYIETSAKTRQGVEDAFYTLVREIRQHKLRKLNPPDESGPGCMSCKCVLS

GTP binding activity, active:
O=c1/c(=C/c2ccc(CNS(=O)(=O)c3ccccc3)o2)sc2n1CCN=2 78%
CCOC(=O)c1c2c3c(c(Cl)ccc3[nH]c1=O)C(=O)c1ccccc1-2 44%
O=C1c2ccccc2C(=O)N1CCCCN(C(=O)c1cc2ccccc2oc1=O)c1ccc(Cl)cc1 51%
CCNC(=S)N=Nc1c(O)[nH]c2ccc([N+](=O)[O-])cc12 67%

GTP binding activity, inactive:
O=C(C1=C[C@H](C2CC2)C[C@H](OCc2ccc(CO)cc2)O1)N1CCOCC1 96%
N#CCC(=O)Nc1ccc(C(=O)NCC(c2ccco2)N2CCCCC2)cc1 (stereo not given) 105%
CCc1ccc(OCC(=O)NC(NC(=S)Nc2ccc(Cl)cc2)C(Cl)(Cl)Cl)cc1 (stereo not given) 100%
CCOC(=O)C1=C(C)NC(C)=C(C(=O)OCC)C1C(=O)OCC(=O)N(C)C1CCS(=O)(=O)C1 (stereo not given) 95%
CCOC(=O)c1[nH]ncc1CN1CCN(Cc2ccccc2)C(CCO)C1 (stereo not given) 97%
CCCC(=O)Nc1cccc(NC(=O)c2ccc3c(c2)OCCO3)c1 99%
CCNC(=O)CC1C(=O)N(c2ccc(OC)cc2)C(=S)N1CCc1ccncc1 (stereo not given) 98%
CN1CCNC(=O)C1CC(=O)NCCc1ccccc1F (stereo not given) 95%
COc1ccc(NC(=O)c2sccc2C)cn1 97%
CCC(CC)C(=O)c1c[nH]c(C(=O)N2CCN(c3ccccc3)CC2)c1 97%
COc1ccc(Cc2noc(CN(C)CC(O)c3ccccc3)n2)cc1OC (stereo not given) 94%
C=CCn1c(SCC(=O)NC2CCCc3ccccc32)nnc1-c1ccncc1 (stereo not given) 99%
Cc1ccc([N+](=O)[O-])cc1NC(=O)C(Sc1ccccc1)c1ccccc1 (stereo not given) 97%
CCn1c(O)c(/C=C/C=C/C=Nc2ccccc2)sc1=S 96%
CCOC(=O)CC1COCCN1Cc1cn(C)nc1-c1ccccc1F (stereo not given) 101%
O=C(NCc1cccnc1)/C(=C\c1ccc(-c2ccc(Cl)c(Cl)c2)o1)S(=O)(=O)c1ccccc1 98%
O=C(COC(=O)C12CC3CC(CC(Br)(C3)C1)C2)Nc1cccnc1Cl 96%
CCCCN(C)C1CCN(C(=S)Nc2cccc(SC)c2)CC1 95%
CC12CCC(C/C1=N/OC(=O)c1cccc([N+](=O)[O-])c1)C2(C)C (stereo not given) 99%
CC1CCCCN1S(=O)(=O)c1ccc(C(=O)Nc2nnc(-c3ccccn3)o2)cc1 (stereo not given) 92%

GTP binding activity, inconclusive:
OC(CON=C1c2ccccc2-c2ccccc21)CN1CCNCC1 (stereo not given) 98%
COc1c(Br)cc2c(C)c(C(=O)O)oc2c1Br 89%
O=C(CSc1nc(O)c(Cc2ccccc2)c(=O)[nH]1)Nc1nc2c(s1)CCCC2 90%
Cc1cc(N2CCOCC2)nc2ccc(NC(=O)CCC(=O)N3CCCC(C)C3)cc12 (stereo not given) 104%
CCn1c2ccccc2c2cc(NC(=S)N3CCOCC3)ccc21 110%
O=C(CNc1ccc2c(c1)OCO2)N/N=C\c1ccccc1Cl 90%
O=S(=O)(Cc1cc(N2CCOCC2)nc(-c2ccccn2)n1)c1ccccc1 95%
O=C1S/C(=C/c2ccc(N3CCOCC3)o2)C(=O)N1Cc1ccc(F)cc1 109%
COc1ccc(-c2nnc3ccc(SCC(=O)N4CCCCC4)nn23)cc1OC 92%
O=C(Nc1nc(-c2cccs2)cs1)c1cc2ccccc2oc1=O 76%
CCOC(=O)c1cc(C)n(-c2ccc(OC)c(OC)c2)c1C 89%
Cc1ccc(C(=S)N2CCN(Cc3ccccc3)CC2)s1 93%
Cc1cc(N2CCCC2=O)c(N)cc1N 91%
N#CCCN1CCN(C(=S)c2ccc(-c3cc(Cl)ccc3Cl)o2)CC1 93%
CNC(=S)NNC(=O)Cc1ccc(O)cc1 104%
O=C(Nc1ccc(Cl)cc1)N1CCN(c2ccc3nnc(-c4ccc(F)cc4)n3n2)CC1 79%
CC(=O)c1c(C)[nH]c(C(=O)O)c1C 95%
CCN=C1SC(C(=O)Nc2cccc(C)c2)CC(=O)N1CC (stereo not given) 105%
CCCCNC(=S)Nc1ccc(-c2nc3ccc(C)cc3s2)cc1 103%
O=C(Nc1ccccc1Cl)N1CCN(c2ccc3nnc(-c4ccc(F)cc4)n3n2)CC1 95%
CCCCCc1nc(-c2nonc2N)no1 92%
Cc1ccc(CNC(=O)C2CCC(CNc3nc(=S)[nH]c4ccccc34)CC2)cc1 (stereo not given) 92%
CCOC(=O)c1c(NC(=O)CSc2nc3ccccc3c(=O)n2-c2ccccc2)sc(C(C)=O)c1C 108%
COC(=O)CCc1sc(NC2CCCCC2)nc1-c1ccc(OC)cc1 94%
Cc1onc(-c2ccccc2Cl)c1C(=O)N1CCN(Cc2ccc3c(c2)OCO3)CC1 97%
Fc1cccc(Cl)c1CSc1ccc2nnc(-c3ccccn3)n2n1 91%
CSc1ncccc1C(=O)Nc1nc2ccc(F)cc2s1 93%
COc1cc(Cl)c(C)cc1NC(=O)c1ccc(NS(=O)(=O)c2ccc(F)c(F)c2)cc1 88%
CN1OC(CC(=O)O)N(c2ccc(Cl)cc2)C1=O (stereo not given) 103%
O=C(CSc1nncs1)NC1CCCc2ccccc21 (stereo not given) 95%
COc1ccccc1OP(=O)(O)Oc1ccccc1OC 98%
CC(C)Cn1c(SCC(=O)N2CCN(C(=O)c3ccco3)CC2)nc2ccccc2c1=O 93%
CCCS(=O)(=O)NCCc1cc2c(C)ccc(C)c2[nH]c1=O 91%
CCN(CC)S(=O)(=O)c1ccc(C(=O)NCc2cccs2)cc1 89%
Nn1c(SCc2nc3ccccc3[nH]2)nnc1-c1ccccc1 93%
C=CCOc1c(OC)cc(Cl)cc1C1NC(=O)NC(C)=C1C(C)=O (stereo not given) 92%
